About 540 (0.36%) of roughly 150,000 compounds showed an effect of 50% or more. The list shows a part of the results.
system: Plasmodium falciparum; assay: Primary screen in NF54 nanoGlo assay, in single point, at 2uM, 72h; a lower Z score goes with more inhibition; format: functional, Erythrocyte; conditions: timepoint 72 hour

| SMILES | % Inhibition | Z score |
| --- | --- | --- |
| CC(C)(CNC(=O)N[C@H]1CCCNC1=O)c1ccccc1Br | -14% | 1.77 |
| Cc1noc(C)c1CN1C(=O)[C@@H]2CC[C@H]1CN(C(=O)c1ccncc1)C2 | -10% | 1.38 |
| COc1cc(OC)cc(OC[C@H]2CCCN2CC(F)F)c1 | -14% | 1.48 |
| CCOC(=O)N1CCC(Nc2ccc3cn[nH]c3c2)CC1 | 3% | -0.59 |
| C=C(C)C1CCC(C)NC1c1ccccc1 (stereo not drawn) | -4% | 0.46 |
| CC1CCN(S(=O)(=O)c2ccc(-c3nc4ccccc4s3)cc2)CC1 | -3% | 0.43 |
| O=C(C1CCCCCC1)N1CCn2c(nnc2C(F)(F)F)C1 | -3% | 0.5 |
| N#Cc1ccccc1/N=C1\CCCN1c1cccc(Cl)c1 | 6% | -1.22 |
| NC(=O)c1ccc(C(=O)N2CCCC[C@@]23CCOC3)s1 | -6% | 1.09 |
| CN(C[C@H]1CCCO1)C(=O)Cn1cncn1 | -5% | 0.9 |
| O=c1c2cccn2cnn1Cc1noc([C@@H]2CCCO2)n1 | -4% | 0.9 |
| CCCN(CC(=O)N1CCc2sccc2[C@@H]1COc1ccc(C)cc1)C(=O)c1ccc2c(c1)OCO2 | 2% | -0.19 |
| Cc1cccc(-c2nc3cc(C)ccc3cc2CN2CCN(CCCO)CC2)c1 | -1% | 0.25 |
| CN1CCC[C@H](CN(CCc2ccccc2)C(=O)CNC(=O)N(C)C)C1 | -9% | 1.61 |
| Cc1n[nH]c(C)c1Cc1n[nH]c(=O)n1[C@@H](C)C(=O)O | 1% | -0.23 |
| Cc1ccc2c(c1)N(C(=O)[C@@H]1CCCCN1C(=O)c1cccnc1)CC2 | -7% | 0.99 |
| O=C(NC1(c2ncccn2)CCOCC1)[C@@H]1Cc2ccccc2O1 | -22% | 2.37 |
| O=C(NCc1ccc2c(c1)CCN2C(=O)c1ccccc1)c1cccc(F)c1 | -17% | 3.18 |
| CCCCC(=O)N1CCC(C(=O)N[C@@H]2CCCC[C@H]2NC(=O)c2ccccc2)CC1 | 0% | 0.04 |
| COC1CCCN(CC2(O)CCCN(C(=O)OC(C)(C)C)CC2)C1 (stereo not drawn) | 2% | -0.26 |
| CCCc1ccc(OCCCC(=O)NC(C)(C)C)cc1 | -20% | 2.39 |
| CC1CC(C)CN(C(=O)CCc2cccnc2)C1 (stereo not drawn) | -11% | 1.17 |
| CC(C)(CNC(=O)CC(C1CC1)C1CC1)C(N)=O | -3% | 0.55 |
| CC1(C)CCN(CCNC(=O)[C@H]2CC[C@@H](C(=O)N3CCCC3)O2)C1 | -9% | 1.46 |

— ChEMBL document CHEMBL4888484, “Replenishing the malaria drug discovery pipeline: Screening and hit evaluation of the MMV Hit Generation Library 1 (HGL1) against asexual blood stage Plasmodium falciparum ,using a nano luciferase reporter read-out” (2022)
